Assay results from paper PMC9911399, “Two distinct binding modes provide the RNA-binding protein RbFox with extraordinary sequence specificity”.
Numbering of substitutions follows the chain as printed; changes in the protein carry UniProt numbers. Some of the results follow.

B1: GGCCAUA (DNA:RNA)
RNA: GGGAGACCGGAAUUCAGAUUGUCCGGCCAUAUUAAAUCCCGUCGUAGCCACCA
DNA 1: CAATCTGAATTCCGGTCTCCC
DNA 2: TGGTGGCTACGACGGGATT
B2: AAGGAAA (DNA:RNA)
RNA: B1 RNA with G25A, G26A, C27G, C28G, U30A
DNA 1: CAATCTGAATTCCGGTCTCCC
DNA 2: TGGTGGCTACGACGGGATT
B3: UAAGCUG (DNA:RNA)
RNA: B1 RNA with G25U, G26A, C27A, C28G, A29C, A31G
DNA 1: CAATCTGAATTCCGGTCTCCC
DNA 2: TGGTGGCTACGACGGGATT
B4: ACGAACA (DNA:RNA)
RNA: B1 RNA with G25A, G26C, C27G, C28A, U30C
DNA 1: CAATCTGAATTCCGGTCTCCC
DNA 2: TGGTGGCTACGACGGGATT
B5: AAGAGGA (DNA:RNA)
RNA: B1 RNA with G25A, G26A, C27G, C28A, A29G, U30G
DNA 1: CAATCTGAATTCCGGTCTCCC
DNA 2: TGGTGGCTACGACGGGATT
B6: GUAGUUA (DNA:RNA)
RNA: B1 RNA with G26U, C27A, C28G, A29U
DNA 1: CAATCTGAATTCCGGTCTCCC
DNA 2: TGGTGGCTACGACGGGATT
B7: ACACUAC (DNA:RNA)
RNA: B1 RNA with G25A, G26C, C27A, A29U, U30A, A31C
DNA 1: CAATCTGAATTCCGGTCTCCC
DNA 2: TGGTGGCTACGACGGGATT
B8: UCCAUGA (DNA:RNA)
RNA: B1 RNA with G25U, G26C, C28A, A29U, U30G
DNA 1: CAATCTGAATTCCGGTCTCCC
DNA 2: TGGTGGCTACGACGGGATT
B9: CACUCCU (DNA:RNA)
RNA: B1 RNA with G25C, G26A, C28U, A29C, U30C, A31U
DNA 1: CAATCTGAATTCCGGTCTCCC
DNA 2: TGGTGGCTACGACGGGATT
B10: GACGCGU (DNA:RNA)
RNA: B1 RNA with G26A, C28G, A29C, U30G, A31U
DNA 1: CAATCTGAATTCCGGTCTCCC
DNA 2: TGGTGGCTACGACGGGATT
B11: UCCCUCG (DNA:RNA)
RNA: B1 RNA with G25U, G26C, A29U, U30C, A31G
DNA 1: CAATCTGAATTCCGGTCTCCC
DNA 2: TGGTGGCTACGACGGGATT
B12: GAUUGUU (DNA:RNA)
RNA: B1 RNA with G26A, C27U, C28U, A29G, A31U
DNA 1: CAATCTGAATTCCGGTCTCCC
DNA 2: TGGTGGCTACGACGGGATT
B13: GAAAUUU (DNA:RNA)
RNA: B1 RNA with G26A, C27A, C28A, A29U, A31U
DNA 1: CAATCTGAATTCCGGTCTCCC
DNA 2: TGGTGGCTACGACGGGATT
B14: CAUGCGC (DNA:RNA)
RNA: GGGAGACCGGAAUUCAGAUUGUCCCAUGCGCUUAAAUCCCGUCGUAGCCACCA
DNA 1: CAATCTGAATTCCGGTCTCCC
DNA 2: TGGTGGCTACGACGGGATT
B15: GACCUGA (DNA:RNA)
RNA: B1 RNA with G26A, A29U, U30G
DNA 1: CAATCTGAATTCCGGTCTCCC
DNA 2: TGGTGGCTACGACGGGATT
B16: CGGGUUA (DNA:RNA)
RNA: B1 RNA with G25C, C27G, C28G, A29U
DNA 1: CAATCTGAATTCCGGTCTCCC
DNA 2: TGGTGGCTACGACGGGATT
B17: CAACCUU (DNA:RNA)
RNA: B14 RNA with U27A, G28C, G30U, C31U
DNA 1: CAATCTGAATTCCGGTCTCCC
DNA 2: TGGTGGCTACGACGGGATT
B18: CCGGCCG (DNA:RNA)
RNA: B14 RNA with A26C, U27G, G30C, C31G
DNA 1: CAATCTGAATTCCGGTCTCCC
DNA 2: TGGTGGCTACGACGGGATT
B19: GUGGGCC (DNA:RNA)
RNA: B14 RNA with C25G, A26U, U27G, C29G, G30C
DNA 1: CAATCTGAATTCCGGTCTCCC
DNA 2: TGGTGGCTACGACGGGATT
B20: UUCUUGA (DNA:RNA)
RNA: B1 RNA with G25U, G26U, C28U, A29U, U30G
DNA 1: CAATCTGAATTCCGGTCTCCC
DNA 2: TGGTGGCTACGACGGGATT
B21: AUCUCUU (DNA:RNA)
RNA: B1 RNA with G25A, G26U, C28U, A29C, A31U
DNA 1: CAATCTGAATTCCGGTCTCCC
DNA 2: TGGTGGCTACGACGGGATT
B22: UUCCCAA (DNA:RNA)
RNA: B1 RNA with G25U, G26U, A29C, U30A
DNA 1: CAATCTGAATTCCGGTCTCCC
DNA 2: TGGTGGCTACGACGGGATT
B23: GCUUAUC (DNA:RNA)
RNA: B1 RNA with G26C, C27U, C28U, A31C
DNA 1: CAATCTGAATTCCGGTCTCCC
DNA 2: TGGTGGCTACGACGGGATT
B24: AAAGCGG (DNA:RNA)
RNA: B14 RNA with C25A, U27A, C31G
DNA 1: CAATCTGAATTCCGGTCTCCC
DNA 2: TGGTGGCTACGACGGGATT
B25: GUCGAUU (DNA:RNA)
RNA: B1 RNA with G26U, C28G, A31U
DNA 1: CAATCTGAATTCCGGTCTCCC
DNA 2: TGGTGGCTACGACGGGATT
B26: AGAUAUG (DNA:RNA)
RNA: B1 RNA with G25A, C27A, C28U, A31G
DNA 1: CAATCTGAATTCCGGTCTCCC
DNA 2: TGGTGGCTACGACGGGATT
B27: CUAAGUG (DNA:RNA)
RNA: B14 RNA with A26U, U27A, G28A, C29G, G30U, C31G
DNA 1: CAATCTGAATTCCGGTCTCCC
DNA 2: TGGTGGCTACGACGGGATT
B28: UGAAUUG (DNA:RNA)
RNA: B1 RNA with G25U, C27A, C28A, A29U, A31G
DNA 1: CAATCTGAATTCCGGTCTCCC
DNA 2: TGGTGGCTACGACGGGATT
B29: GACGACC (DNA:RNA)
RNA: B14 RNA with C25G, U27C, C29A, G30C
DNA 1: CAATCTGAATTCCGGTCTCCC
DNA 2: TGGTGGCTACGACGGGATT
B30: GAUUCAC (DNA:RNA)
RNA: B14 RNA with C25G, G28U, G30A
DNA 1: CAATCTGAATTCCGGTCTCCC
DNA 2: TGGTGGCTACGACGGGATT
B31: UCUUCAU (DNA:RNA)
RNA: B14 RNA with C25U, A26C, G28U, G30A, C31U
DNA 1: CAATCTGAATTCCGGTCTCCC
DNA 2: TGGTGGCTACGACGGGATT

Each binder was assayed against T1, RBFOX1 RRM RbFoxmut (Fox-RRM*) (Homo sapiens, UniProt Q9NWB1 109-208, R118D;E147R;N151S;E152T) (assay: EMSA; HiTS-Eq, 1 nM pool, 10 min; buffer printed only for the single-RNA assays: 10 mM Tris pH 7.5, 150 mM NaCl, 3.4 mM EDTA, 0.001% NP-40, 30 C). Settings: tags: His6 N-terminal (pET28a); label: 5' 32P.
T1 sequence: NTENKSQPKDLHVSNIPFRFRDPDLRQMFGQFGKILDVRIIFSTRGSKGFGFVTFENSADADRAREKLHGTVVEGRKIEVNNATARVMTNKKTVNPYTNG
How it was run: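 These values rest on relative association constants, computed from read-count changes of each RNA species versus the control reaction and normalised to the cognate motif. Reads came from free RNA recovered by 8% native PAGE after purified RbFox RRM (wild type or mutant) at increasing concentrations was equilibrated for 10 min in 50 µL with 1 nM of a 5′-radiolabelled pool with 7 randomized nucleotides and DNA-annealed flanks.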

| Binder | binding signal |
| --- | --- |
| B1 | 0.0669 KA relative to UGCAUGU |
| B2 | 0.0644 KA relative to UGCAUGU |
| B3 | 0.0766 KA relative to UGCAUGU |
| B4 | 0.0834 KA relative to UGCAUGU |
| B5 | 0.0647 KA relative to UGCAUGU |
| B6 | 0.141 KA relative to UGCAUGU |
| B7 | 0.0855 KA relative to UGCAUGU |
| B8 | 0.11 KA relative to UGCAUGU |
| B9 | 0.0697 KA relative to UGCAUGU |
| B10 | 0.105 KA relative to UGCAUGU |
| B11 | 0.133 KA relative to UGCAUGU |
| B12 | 0.179 KA relative to UGCAUGU |
| B13 | 0.0731 KA relative to UGCAUGU |
| B14 | 0.101 KA relative to UGCAUGU |
| B15 | 0.0686 KA relative to UGCAUGU |
| B16 | 0.139 KA relative to UGCAUGU |

| Binder | binding signal |
| --- | --- |
| B17 | 0.119 KA relative to UGCAUGU |
| B18 | 0.0916 KA relative to UGCAUGU |
| B19 | 0.193 KA relative to UGCAUGU |
| B20 | 0.111 KA relative to UGCAUGU |
| B21 | 0.0743 KA relative to UGCAUGU |
| B22 | 0.101 KA relative to UGCAUGU |
| B23 | 0.104 KA relative to UGCAUGU |
| B24 | 0.0725 KA relative to UGCAUGU |
| B25 | 0.0768 KA relative to UGCAUGU |
| B26 | 0.183 KA relative to UGCAUGU |
| B27 | 0.0707 KA relative to UGCAUGU |
| B28 | 0.174 KA relative to UGCAUGU |
| B29 | 0.052 KA relative to UGCAUGU |
| B30 | 0.0862 KA relative to UGCAUGU |
| B31 | 0.0793 KA relative to UGCAUGU |
